Results published in the supplement of paper PMC4967469.
A lower IC50 marks a more sensitive line; where the fit passes the top or lowest dose, that dose stands as a limit. AUC, from the same fit, is the share of area under the viability curve across the 256-fold dose range; values near 1 show little effect. Where the top dose is marked as inferred, it comes from the curve model; the source does not state it. For some of these results: Where an entry number is given, a second screen of the drug exists; the two often differ.

What was measured:
Assay in all cases: Viability of human cancer cell lines after 72 h of drug (GDSC screen)
[1] = compound: CC(C)=CC[C@@H](O)C1=CC(=O)c2c(O)ccc(O)c2C1=O [Shikonin]; conditions: top dose 16 µM; top dose inferred
Protocol: (§1)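 Human cancer cell lines in 384-well plates, medium with 10% serum, drug for 72 h over a 256-fold dose range (nine 2-fold or five 4-fold steps up to the top dose). Adherent lines were fixed and stained with the nucleic acid dye Syto60, suspension lines read with resazurin; signal relative to control wells, capped at 0 and 100%. One two-parameter sigmoid per drug and line, fitted in a mixed model over all curves with the slope shared within a line.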

[2] = compound: CNC(=O)c1ccc(Nc2cc(Nc3ccccc3S(=O)(=O)C(C)C)c3cc[nH]c3n2)nc1 [HG-5-113-01]; conditions: top dose 10 µM; top dose inferred
Protocol: as §1

[3] = compound: Cc1cc(N2CCOCC2)cc2[nH]c(-c3c(NC[C@@H](O)c4cccc(Cl)c4)cc[nH]c3=O)nc12 [BMS-536924]; conditions: top dose 4 µM; screen: GDSC drug entry 1091; top dose inferred
Protocol: as §1

[4] = compound: Cc1ccc(-n2nc(C(C)(C)C)cc2NC(=O)Nc2ccc(OCCN3CCOCC3)c3ccccc23)cc1 [BIRB 0796]; conditions: top dose 10 µM; top dose inferred
Protocol: as §1

[5] = compound: Cc1cccc(-c2[nH]c(C(C)(C)C)nc2-c2ccc3nccnc3c2)n1 [SB-525334]; conditions: top dose 20 µM; top dose inferred
Protocol: as §1

[6] = compound: NC(=O)c1ccc(N(C(N)=O)c2c(F)cccc2F)nc1-c1ccc(F)cc1F [VX-702]; conditions: top dose 2 µM; top dose inferred
Protocol: as §1

[7] = compound: O=C(c1cc(Cc2n[nH]c(=O)c3ccccc23)ccc1F)N1CCN(C(=O)C2CC2)CC1 [Olaparib]
Protocol: as §1

[8] = top dose 5 µM, screen: GDSC drug entry 1017, top dose inferred
[9] = top dose 10 µM, screen: GDSC drug entry 1495

Cell Line	AUC [1]	IC50 [1] [nM]	AUC [2]	IC50 [2] [µM]	AUC [3]	IC50 [3] [µM]	AUC [4]	IC50 [4] [µM]	AUC [5]	IC50 [5] [µM]	AUC [6]	IC50 [6] [nM]	AUC [7, 8]	IC50 [7, 8] [µM]	AUC [7, 9]	IC50 [7, 9] [µM]
451Lu (melanoma, adherent)	0.35	391	0.902	> 10	0.983	> 4	0.98	> 10	0.986	> 20	0.953	> 2000	0.986	> 5	0.988	> 10
ASH-3 (thyroid, adherent)	0.478	870	0.779	4.09	0.949	> 4	0.973	> 10	0.988	> 20	0.988	> 2000	0.978	> 5	0.963	> 10
CHSA0011 (chondrosarcoma, adherent)	0.736	6340	0.764	5.13	0.833	> 4	0.816	8.66	0.963	> 20	0.973	> 2000	0.98	> 5	0.91	> 10
COLO-783 (melanoma, adherent)	0.829	9450	0.931	> 10	0.967	> 4	0.983	> 10	0.944	> 20	0.991	> 2000	0.973	> 5	0.99	> 10
EFM-192A (breast, adherent)	0.484	900	0.843	8.31	0.984	> 4	0.986	> 10	0.963	> 20	0.981	> 2000	0.984	> 5	0.977	> 10
H3118 (head and neck, adherent)	0.426	614	0.72	2.81	0.632	0.6	0.964	> 10	0.966	> 20	0.958	> 2000	0.962	> 5	0.953	> 10
HARA (lung squamous cell carcinoma, adherent)	0.627	2370	0.756	3.95	0.856	> 4	0.969	> 10	0.955	> 20	0.978	> 2000	0.937	> 5	0.925	> 10
HCC-15 (lung squamous cell carcinoma, adherent)	0.571	1650	0.767	4.75	0.857	> 4	0.981	> 10	0.971	> 20	0.943	> 2000	0.929	> 5	0.968	> 10
Hs766T (pancreas, adherent)	0.622	2420	0.857	> 10	0.92	> 4	0.979	> 10	0.971	> 20	0.959	> 2000	0.939	> 5	0.976	> 10
Hs-578-T (breast, adherent)	0.666	3000	0.899	> 10	0.958	> 4	0.985	> 10	0.981	> 20	0.987	> 2000	0.977	> 5	0.968	> 10
JHU-022 (head and neck, adherent)	0.652	2970	0.777	5.15	0.883	> 4	0.927	> 10	0.942	> 20	0.976	> 2000	0.945	> 5	0.967	> 10
JIMT-1 (breast, adherent)	0.405	536	0.845	8.08	0.949	> 4	0.956	> 10	0.982	> 20	0.98	> 2000	0.95	> 5	0.931	> 10
LC-1-sq (lung squamous cell carcinoma, adherent)	0.556	1470	0.786	5.11	0.954	> 4	0.948	> 10	0.985	> 20	0.913	> 2000	0.939	> 5	0.973	> 10
MDA-MB-330 (breast, adherent)	0.512	1090	0.937	> 10	0.967	> 4	0.967	> 10	0.98	> 20	0.976	> 2000	0.986	> 5	0.984	> 10
MDA-MB-415 (breast, adherent)	0.545	1380	0.934	> 10	0.951	> 4	0.959	> 10	0.983	> 20	0.983	> 2000	0.983	> 5	0.962	> 10
MDA-MB-468 (breast, adherent)	0.497	985	0.663	1.74	0.915	> 4	0.893	> 10	0.718	5.05	0.988	> 2000	–	–	–	–
MOG-G-UVW (glioma, adherent)	0.465	807	0.684	2.01	0.985	> 4	0.972	> 10	0.966	> 20	0.958	> 2000	0.873	4.57	0.819	5.51
NCI-H841 (small cell lung carcinoma, adherent)	0.579	1650	0.802	4.95	0.961	> 4	0.928	> 10	0.938	> 20	0.985	> 2000	0.981	> 5	0.972	> 10
NCI-H1688 (small cell lung carcinoma, adherent)	0.759	6120	0.899	> 10	0.899	> 4	0.917	> 10	0.806	11.4	0.986	> 2000	0.987	> 5	0.974	> 10
NCI-H1944 (lung adenocarcinoma, adherent)	0.494	960	0.784	4.54	0.794	1.98	0.959	> 10	0.769	8.04	0.985	> 2000	–	–	–	–
NCI-H2110 (non-small cell lung carcinoma, adherent)	0.516	1110	0.767	3.81	0.706	0.965	0.986	> 10	0.986	> 20	0.968	> 2000	0.963	> 5	0.963	> 10
OVCA433 (ovary, adherent)	–	–	0.709	2.61	0.871	> 4	0.983	> 10	0.957	> 20	0.984	> 2000	0.979	> 5	0.948	> 10
OVK-18 (ovary, adherent)	–	–	0.811	6.01	0.96	> 4	0.96	> 10	0.977	> 20	0.973	> 2000	0.858	4.85	0.956	> 10
PEO1 (ovary, adherent)	–	–	0.652	1.68	0.9	> 4	0.917	> 10	0.971	> 20	0.987	> 2000	0.985	> 5	0.924	> 10
RCC-AB (kidney, adherent)	–	–	0.883	> 10	0.969	> 4	0.9	> 10	0.827	17.7	0.955	> 2000	0.978	> 5	0.918	> 10
RCC-FG2 (kidney, adherent)	–	–	0.825	8.31	0.903	> 4	0.902	> 10	0.978	> 20	0.963	> 2000	0.965	> 5	0.965	> 10
RCC-JF (kidney, adherent)	–	–	0.754	3.75	0.93	> 4	0.877	> 10	0.843	16.8	0.935	> 2000	0.884	> 5	0.875	> 10
RCC-JW (kidney, adherent)	–	–	0.758	3.57	0.979	> 4	0.975	> 10	0.974	> 20	0.986	> 2000	0.966	> 5	0.932	> 10
SK-GT-4 (oesophagus, adherent)	–	–	0.837	9.17	0.936	> 4	0.889	> 10	0.917	> 20	0.976	> 2000	0.959	> 5	0.972	> 10
TE-4 (oesophagus, adherent)	–	–	0.733	2.87	0.945	> 4	0.95	> 10	0.976	> 20	0.982	> 2000	0.987	> 5	0.964	> 10
